Experimental data taken from the supplement of paper PMC11246515.
± gives the standard deviation of the averaged measurements.

Test: total protein half-life in vivo (active degradation + dilution); higher = more stable protein
[1] = E. coli NCM3722 delta-clpP delta-lon delta-hslV, growth: N-lim chemostat, doubling time 6 h
[2] = E. coli NCM3722 delta-clpP, growth: N-lim chemostat, doubling time 6 h
[3] = E. coli NCM3722 delta-hslV, growth: N-lim chemostat, doubling time 6 h
[4] = E. coli NCM3722 delta-smpB, growth: N-lim chemostat, doubling time 6 h
[5] = wild type E. coli NCM3722, growth: C-lim chemostat, doubling time 3 h
[6] = wild type E. coli NCM3722, growth: C-lim chemostat, doubling time 12 h
[7] = wild type E. coli NCM3722, growth: P-lim chemostat, doubling time 6 h
[8] = E. coli NCM3722 delta-lon, growth: N-lim chemostat, doubling time 6 h
[9] = wild type E. coli NCM3722, growth: C-lim chemostat, doubling time 6 h
[10] = wild type E. coli NCM3722, growth: N-lim chemostat, doubling time 6 h
[11] = wild type E. coli NCM3722, growth: N-lim chemostat, doubling time 12 h
[12] = wild type E. coli NCM3722, growth: P-lim chemostat, doubling time 12 h

Row | Sequence | total protein half-life in vivo [1] [h] | total protein half-life in vivo [2] [h] | total protein half-life in vivo [3] [h] | total protein half-life in vivo [4] [h] | total protein half-life in vivo [5] [h] | total protein half-life in vivo [6] [h] | total protein half-life in vivo [7] [h] | total protein half-life in vivo [8] [h] | total protein half-life in vivo [9] [h] | total protein half-life in vivo [10] [h] | total protein half-life in vivo [11] [h] | total protein half-life in vivo [12] [h]
1 | MHIGQALDLVSRYDSLRNPLTSLGDYLDPELISRCLAESGTVTLRKRRLPLEMMVWCIVGMALERKEPLHQIVNRLDIMLPGNRPFVAPSAVIQARQRLGSEAVRRVFTKTAQLWHNATPHPHWCGLTLLAIDGVFWRTPDTPENDAAFPRQTHAGNPALYPQVKMVCQMELTSHLLTAAAFGTMKNSENELAEQLIEQTGDNTLTLMDKGYYSLGLLNAWSLAGEHRHWMIPLRKGAQYEEIRKLGKGDHLVKLKTSPQARKKWPGLGNEVTARLLTVTRKGKVCHLLTSMTDAMRFPGGEMGDLYSHRWEIELGYREIKQTMQRSRLTLRSKKPELVEQELWGVLLAYNLVRYQMIKMAEHLKGYWPNQLSFSESCGMVMRMLMTLQGASPGRIPELMRDLASMGQLVKLPTRRERAFPRVVKERPWKYPTAPKKSQSVA | 5.37 | 4.69 | 3.43 | 3.65 ± 0.31 | 2.3 ± 0.24 | 8.37 | 4.8 |  |  |  |  | 
2 | MITGIQITKAANDDLLNSFWLLDSEKGEARCIVAKAGYAEDEVVAVSKLGDIEYREVPVEVKPEVRVEGGQHLNVNVLRRETLEDAVKHPEKYPQLTIRVSGYAVRFNSLTPEQQRDVIARTFTESL | 5.3 ± 0.86 | 2.93 ± 0.1 | 1.53 ± 0.26 | 1.49 ± 0.1 | 1.46 ± 0.044 | 2.76 ± 0.52 | 2.63 ± 0.29 | 2.37 ± 0.12 | 2.17 ± 0.087 | 1.64 ± 0.2 | 2.28 ± 0.2 | 5.22 ± 0.96
3 | MLKRIKIVTSLLLVLAVFGLLQLTSGGLFFNALKNDKENFTVLQTIRQQQSTLNGSWVALLQTRNTLNRAGIRYMMDQNNIGSGSTVAELMESASISLKQAEKNWADYEALPRDPRQSTAAAAEIKRNYDIYHNALAELIQLLGAGKINEFFDQPTQGYQDGFEKQYVAYMEQNDRLHDIAVSDNNASYSQAMWILVGVMIVVLAVIFAVWFGIKASLVAPMNRLIDSIRHIAGGDLVKPIEVDGSNEMGQLAESLRHMQGELMRTVGDVRNGANAIYSGASEIATGNNDLSSRTEQQAASLEETAASMEQLTATVKQNAENARQASHLALSASETAQRGGKVVDNVVQTMRDISTSSQKIADIISVIDGIAFQTNILALNAAVEAARAGEQGRGFAVVAGEVRNLAQRSAQAAREIKSLIEDSVGKVDVGSTLVESAGETMAEIVSAVTRVTDIMGEIASASDEQSRGIDQVGLAVAEMDRVTQQNAALVEESAAAAAALEEQASRLTEAVAVFRIQQQQRETSAVVKTVTPAAPRKMAVADSEENWETF |  |  |  | > 8 | 2.501 ± 0.017 | 7.03 ± 2.4 | 4.48 |  | 4.53 ± 0.32 |  |  | 
4 | MQHKLLINGELVSGEGEKQPVYNPATGDVLLEIAEASAEQVDAAVRAADAAFAEWGQTTPKVRAECLLKLADVIEENGQVFAELESRNCGKPLHSAFNDEIPAIVDVFRFFAGAARCLNGLAAGEYLEGHTSMIRRDPLGVVASIAPWNYPLMMAAWKLAPALAAGNCVVLKPSEITPLTALKLAELAKDIFPAGVINILFGRGKTVGDPLTGHPKVRMVSLTGSIATGEHIISHTASSIKRTHMELGGKAPVIVFDDADIEAVVEGVRTFGYYNAGQDCTAACRIYAQKGIYDTLVEKLGAAVATLKSGAPDDESTELGPLSSLAHLERVGKAVEEAKATGHIKVITGGEKRKGNGYYYAPTLLAGALQDDAIVQKEVFGPVVSVTPFDNEEQVVNWANDSQYGLASSVWTKDVGRAHRVSARLQYGCTWVNTHFMLVSEMPHGGQKLSGYGKDMSLYGLEDYTVVRHVMVKH | 4.71 ± 0.69 | 3.61 ± 0.12 | 3.57 ± 0.1 | 3.54 ± 0.27 | 2.87 ± 0.12 | 8.728 ± 0.035 | 5.42 ± 0.3 | 3.8 ± 0.14 | 5.41 ± 0.44 | 3.44 ± 0.1 | 5.229 ± 0.048 | 10.2 ± 0.2
5 | MSATKLTRREQRARAQHFIDTLEGTAFPNSKRIYITGTHPGVRVPMREIQLSPTLIGGSKEQPQYEENEAIPVYDTSGPYGDPQIAINVQQGLAKLRQPWIDARGDTEELTVRSSDYTKARLADDGLDELRFSGVLTPKRAKAGRRVTQLHYARQGIITPEMEFIAIRENMGRERIRSEVLRHQHPGMSFGAHLPENITAEFVRDEVAAGRAIIPANINHPESEPMIIGRNFLVKVNANIGNSAVTSSIEEEVEKLVWSTRWGADTVMDLSTGRYIHETREWILRNSPVPIGTVPIYQALEKVNGIAEDLTWEAFRDTLLEQAEQGVDYFTIHAGVLLRYVPMTAKRLTGIVSRGGSIMAKWCLSHHQENFLYQHFREICEICAAYDVSLSLGDGLRPGSIQDANDEAQFAELHTLGELTKIAWEYDVQVMIEGPGHVPMQMIRRNMTEELEHCHEAPFYTLGPLTTDIAPGYDHFTSGIGAAMIGWFGCAMLCYVTPKEHLGLPNKEDVKQGLITYKIAAHAADLAKGHPGAQIRDNAMSKARFEFRWEDQFNLALDPFTARAYHDETLPQESGKVAHFCSMCGPKFCSMKISQEVRDYAATQTIEMGMADMSENFRARGGEIYLRKEEA | 4.94 ± 0.62 | 3.13 ± 0.41 | 1.1 ± 0.19 | 1.08 ± 0.037 | 1.41 ± 0.15 | 2.78 ± 0.31 | 1.77 ± 0.33 | 1.49 ± 0.14 | 2.094 ± 0.007 | 1.28 ± 0.075 | 1.52 ± 0.023 | 3.1 ± 0.83
